In all, about 16,000 sequences were measured (“Z-score”: median about -0.37, highest 2% from about 3.2 on). The list shows a part of the results.
tested on: RBM10 RRM1-ZnF (GST-tagged construct); assay: RNAcompete 7-mer binding Z-score; higher = stronger binding preference
Summary of the method: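 Each heptamer motif was given a one-sided Z-score for enrichment across the probes that contained it. GST-tagged RBM10 constructs (20 pmol) were combined with 1.5 nmol of a designed pool of 241 399 RNAs of up to 41 nt, transcribed from microarray-derived DNA templates. Binding took place in 1 ml Hepes pH 7.8 buffer containing KCl, NaCl, glycerol, DTT, BSA and glutathione Sepharose beads for 30 min at 4°C. After four 2-min washes at 4°C, bound RNA was identified by microarray hybridisation.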

In order of rising “RNAcompete 7-mer binding Z-score” value:
1. CCUAUUU  -0.98
2. CAACCUU  -0.954
3. CGGCCAU  -0.922
4. CCUUUUG  -0.909
5. AUUUUUU  -0.896
6. CAUUCUA  -0.841
7. CUUAUCU  -0.824
8. CCCGAUU  -0.811
9. CGACUGU  -0.798
10. GACCUCC  -0.795
11. CCAGUCC  -0.789
12. UCGACCU  -0.782
13. UUCGACU  -0.779
14. UAACCAU  -0.772
15. AAAAUCC  -0.759
16. CUAACCC  -0.756
17. CCUCUCU  -0.753
18. UACCUGC  -0.743
19. UACAUUU  -0.733
20. CAUUAAA  -0.733
21. UCUCUCA  -0.724
22. UAUUCUC  -0.72
23. UUCUACA  -0.717
24. AGCCCUA  -0.714
25. ACUCUCC  -0.711
26. UCUCUCG  -0.711
27. UAUCACU  -0.707
28. UUUGAAU  -0.704
29. CAAUCAU  -0.704
30. UAAACCU  -0.701
31. UAAAGCC  -0.691
32. UCUAGCA  -0.691
33. AGAUCAC  -0.688
34. GCUCCGA  -0.688
35. CUUCAAU  -0.685
36. UUAGCUU  -0.685
37. UUUUUGU  -0.685
38. UUCAUGC  -0.685
39. UGCGACC  -0.675
40. CCCAAUG  -0.662
41. CUUUUUC  -0.659
42. ACAAUUC  -0.655
43. AUCACCC  -0.655
44. UUGAUUU  -0.652
45. UUCAUGA  -0.649
46. UCUUGUU  -0.633
47. UCUCGAA  -0.629
48. CAGAAAU  -0.629
49. CUAAGCU  -0.626
50. CUAAUAU  -0.607
51. AGUGUCC  -0.604
52. AUUGCAC  -0.6
53. UCAUUAU  -0.597
54. CGUACCA  -0.597
55. CUCUCGA  -0.594
56. UUGCACC  -0.591
57. CGCCCUC  -0.587
58. ACGUCUA  -0.571
59. GCCCGAU  -0.565
60. CGUGCCC  -0.561
61. ACACGUC  -0.561
62. CGCCGAA  -0.558
63. UUGACCC  -0.545
64. AUAAACU  -0.539
65. CAGGUCU  -0.535
66. ACUAGUC  -0.532
67. UUGCUGC  -0.529
68. ACGCAAC  -0.529
69. UUAUAUU  -0.526
70. UCCCGCA  -0.526
71. ACACUCA  -0.516
72. CUUGUUG  -0.513
73. AAACUGU  -0.503
74. CGGCCAA  -0.493
75. CAGCCAG  -0.493
76. CGGCCGC  -0.49
77. GUUCUGA  -0.483
78. UCCCCAA  -0.48
79. GAACCAC  -0.477
80. UCUGAUG  -0.474
81. AGCCACC  -0.474
82. ACUACGU  -0.47
83. UCCUGGU  -0.467
84. AACCAGU  -0.464
85. UGGCUCC  -0.461
86. AAGGCCU  -0.457
87. UCGCGUC  -0.451
88. AAACUAC  -0.448
89. UAGUAUC  -0.431
90. ACGCGAC  -0.428
91. AACUGCG  -0.415
92. CUCAGAA  -0.412
93. UGCGUCA  -0.409
94. GUGUUCC  -0.402
95. UGUAUCG  -0.399
96. ACUAGAU  -0.386
97. AUCACGC  -0.383
98. GAACAUA  -0.376
99. AGCCCCA  -0.376
100. AACGUAC  -0.373
101. UAAUGUU  -0.35
102. AAGUAUU  -0.337
103. GAUUUAA  -0.334
104. UGGCCAA  -0.324
105. GCCCGGC  -0.318
106. ACGAGUU  -0.305
107. UGUUAUG  -0.295
108. CUAUAAG  -0.275
109. CCUCGGU  -0.259
110. AUGUAUA  -0.253
111. CAUUGUG  -0.253
112. UGAUUGC  -0.236
113. GAUCAAU  -0.236
114. UGUACCG  -0.233
115. UAUGUAA  -0.23
116. GCAACGC  -0.207
117. CAUAGAA  -0.204
118. CCGAACG  -0.201
119. GAUAUAU  -0.178
120. ACUGAGU  -0.175
121. AGAUAGC  -0.142
122. AACAAUG  -0.126
123. GGCUCAA  -0.126
124. UGAACGC  -0.123
125. UGACUGA  -0.119
126. AGUCGCG  -0.103
127. UGUGCAC  -0.0934
128. GCGUGUU  -0.0837
129. UAUAAGA  -0.00571
130. AGUCUAG  -0.00246
131. GUUGAAC  0.0495
132. GUACGAA  0.0658
133. UCUGGAG  0.0983
134. AGCGACA  0.111
135. AAAGCAA  0.124
136. CAGUAAG  0.128
137. CUUGGAA  0.166
138. GGUCCCG  0.218
139. GGUACCA  0.218
140. GCUUAGG  0.235
141. AGUAGAC  0.264
142. GAUAUUG  0.267
143. GUAGUAC  0.29
144. GAGAUUA  0.306
145. AUGAUUG  0.309
146. AAGGUCC  0.319
147. GUGAUAU  0.339
148. UUCGGAG  0.361
149. GCGGCAA  0.443
150. UAAUGGC  0.456
151. CGAUGGC  0.495
152. GUUGACG  0.495
153. GCAGGCA  0.495
154. CGUACGG  0.498
155. CAGGUCA  0.498
156. AAAGAGC  0.53
157. GCUGAUG  0.54
158. AUGAGUA  0.625
159. AGGACGA  0.66
160. ACGACGG  0.732
161. AGAGGGC  0.771
162. GGCUGCG  0.803
163. GGACGAA  0.826
164. UGCAGGU  0.849
165. GAGAGGC  0.859
166. GCUGGGC  0.862
167. AAAGUGA  0.914
168. AUACGGA  0.92
169. GGUAGUA  1.24
170. GUCGGGA  1.24
171. GUUGGAC  1.28
172. UGGGCAU  1.32
173. GGACAAG  1.56
174. GGAGAAC  1.56
175. GAGUGAG  1.69
176. UGGAUUG  1.78
177. GCAGCGG  2.02
178. UAGGGGC  2.25
179. GAGUGGU  2.46
180. GUUGGUG  2.54
181. GGUACGG  2.64
182. UGAAGGA  2.99
183. GUACGGG  3.08

Reference: the supplement of paper PMC5499739
